Reference: the supplement of paper PMC6089552
Several values for one entry are separate records, joined by “and”; a condition that tells them apart may be missing. Identical values can stand only once. Screen size: about 3,200 compounds; about 300 (9.4%) showed activity. Only a part is listed here, and it is no random draw.

Tested on: A673/TR/shEF
Assay: cell viability (LOESS-normalised, relative to median of negative controls) (log2 ratio); higher = more viable cells (less compound effect), active = hit call of the paper (over 3 MAD below the median)
Details: treatment time: 72 h
Method in brief: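 A673/TR/shEF Ewing sarcoma cells (1,500 per well, 384-well plates) were grown with or without doxycycline to induce EWS-FLI1 shRNA knockdown, starting 24 h before compounds. Library compounds at two or more concentrations, with DMSO controls, were added for three days. Cell viability was read by CellTiter-Glo luminescence on an Envision reader, then LOESS-corrected per plate, divided by the median of negative controls and log2-transformed. Hits were wells at least three median absolute deviations from the median of all screened wells.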

[1] = 0.25 µM, library screen: screen1, EWS-FLI1 expression: high (no doxycycline)
[2] = 0.25 µM, library screen: screen1, EWS-FLI1 expression: low (doxycycline-induced shRNA knockdown)
[3] = 0.25 µM, library screen: screen2, EWS-FLI1 expression: high (no doxycycline)
[4] = 0.25 µM, library screen: screen2, EWS-FLI1 expression: low (doxycycline-induced shRNA knockdown)
[5] = 2.5 µM, library screen: screen1, EWS-FLI1 expression: high (no doxycycline)
[6] = 2.5 µM, library screen: screen1, EWS-FLI1 expression: low (doxycycline-induced shRNA knockdown)
[7] = 2.5 µM, library screen: screen2, EWS-FLI1 expression: high (no doxycycline)
[8] = 2.5 µM, library screen: screen2, EWS-FLI1 expression: low (doxycycline-induced shRNA knockdown)
[9] = 0.025 µM, library screen: screen1, EWS-FLI1 expression: high (no doxycycline)
[10] = 0.025 µM, library screen: screen1, EWS-FLI1 expression: low (doxycycline-induced shRNA knockdown)
[11] = 25 µM, library screen: screen1, EWS-FLI1 expression: high (no doxycycline)
[12] = 25 µM, library screen: screen1, EWS-FLI1 expression: low (doxycycline-induced shRNA knockdown)
[13] = 0.103 µM, library screen: screen3, EWS-FLI1 expression: high (no doxycycline)
[14] = 0.103 µM, library screen: screen3, EWS-FLI1 expression: low (doxycycline-induced shRNA knockdown)
[15] = 0.308 µM, library screen: screen3, EWS-FLI1 expression: high (no doxycycline)
[16] = 0.308 µM, library screen: screen3, EWS-FLI1 expression: low (doxycycline-induced shRNA knockdown)
[17] = 0.926 µM, library screen: screen3, EWS-FLI1 expression: high (no doxycycline)
[18] = 0.926 µM, library screen: screen3, EWS-FLI1 expression: low (doxycycline-induced shRNA knockdown)
[19] = 2.8 µM, library screen: screen3, EWS-FLI1 expression: high (no doxycycline)
[20] = 2.8 µM, library screen: screen3, EWS-FLI1 expression: low (doxycycline-induced shRNA knockdown)
[21] = 8.3 µM, library screen: screen3, EWS-FLI1 expression: high (no doxycycline)
[22] = 8.3 µM, library screen: screen3, EWS-FLI1 expression: low (doxycycline-induced shRNA knockdown)
[23] = 25 µM, library screen: screen3, EWS-FLI1 expression: high (no doxycycline)
[24] = 25 µM, library screen: screen3, EWS-FLI1 expression: low (doxycycline-induced shRNA knockdown)

Measured: cell viability (log2)

CCOC(=O)C1=C[C@]2(CC)CCCN3CCc4c(n1c1ccccc41)[C@@H]32
inactive: [1] 0.0816 | [2] 0.181 | [3] 0.117 | [4] 0.0747 | [5] 0.121 | [6] 0.157 | [7] 0.0944 | [8] -0.0237

CC(=O)c1cc2c(cc1O)OC(C)(C)C=C2
inactive: [1] 0.16 | [2] -0.0151 | [5] 0.126 | [6] 0.0912

N#CC(C#N)=C(N)/C(C#N)=C/c1ccc2[nH]ccc2c1
0.369: [9]
active: [5] -0.421 | [11] -0.203
inactive: [10] 0.0769 | [1] 0.269 | [2] 0.0358 | [6] 0.0519 | [12] 0.0138

O=C(O)CCC(=O)Nc1ccc(S(=O)(=O)Nc2nccs2)cc1
inactive: [1] 0.0404 | [2] 0.117 | [5] 0.0838 | [6] 0.0836

COc1cnc(NS(=O)(=O)c2ccc(N)cc2)nc1
inactive: [13] -0.0135 | [14] 0.073 | [1] 0.0544 | [2] 0.0896 | [15] -0.00761 | [16] 0.0337 | [17] 0.0887 | [18] -0.00887 | [5] 0.152 | [6] 0.136 | [19] 0.0694 | [20] 3.5e-05 | [21] -0.0117 | [22] 0.0542 | [23] 0.0313 | [24] 0.0493

Cc1cccc(CN2CCN(C(c3ccccc3)c3ccc(Cl)cc3)CC2)c1 (configuration not stated)
inactive: [1] 0.0446 | [2] 0.0427 | [5] 0.139 | [6] 0.153

CNCCC(Oc1ccccc1OC)c1ccccc1 (configuration not stated)
inactive: [3] 0.182 | [4] 0.0925 | [7] 0.0662 | [8] 0.0646

CC1CNCCN1S(=O)(=O)c1cccc2cnccc12 (configuration not stated)
active: [11] -0.155
inactive: [10] 0.0557 | [2] 0.0236 | [3] 0.145 and 0.204 | [4] 0.0425 and 0.187 | [5] -0.0561 | [6] 0.0655 | [7] 0.0837 and 0.258 | [8] 0.0573 and 0.209 | [12] 0.112
0.301: [1]
0.354: [9]

O=NN(CCCl)C(=O)NC1CCCCC1
inactive: [13] 0.0432 | [14] 0.0116 | [15] 0.058 | [16] 0.121 | [17] 0.11 | [18] 0.0785 | [19] 0.0514 | [20] 0.0712 | [21] 0.0431 | [22] 0.0579 | [23] 0.0908 | [24] 0.065
